# Measured values published in the RNAGym collection of RNA variant scans (doi:10.7554/elife.90254).
# Read counts are not given, so values of variants with three or more changes are uncertain.
# B1: LINE1-mini (parent)
# chain: GGCAGAGCUCAACACAGCGUGGCAAAGUGGCUGUGGCUAGACUGCC
# Variants of: B1
# Experiment: self-cleavage, relative activity (ratio to wild type); higher = more cleavage; in vitro, sequencing; the parent is a self-cleaving ribozyme
row,Variant,self-cleavage
1,GCCAGAGCUCAACACAGCGUGACAAAGUAGAUGUGGCUAGACUGCC [G2C G22A G29A C31A],0.32
2,GUCUGCGCUCAACACAGCGUGGCAAAGUGGCUGUGGCUAGACUGCC [G2U A4U A6C],0.03
3,GCCAGAUCUCAACACAGCGUGGCAAAGUGGCUGUGGCUAGACUGGC [G2C G7U C45G],0.01
4,GUCAGAGCUCCACAGAGCGUGGCAAAGAGGCUGUGGCUAGACUGAC [G2U A11C C15G U28A C45A],0
5,GCCAGAUCUCAACACAGCGUGGCAAAAUGGCUUUGGCUAGACUGCC [G2C G7U G27A G33U],0.11
6,GCCAGAUCUCAACACAGCGUGGCAAAGUGGCUGUGUCUAGACUGCC [G2C G7U G36U],0.03
7,GUCGGAGCUCAACACAGCGUUGCAAAGUGUCUGUGGCUAGACUGCC [G2U A4G G21U G30U],0.04
8,GCCAGAGCUCAACACACCGUGGCAAAGUGGCUGUGGCUAUCCUGCC [G2C G17C G40U A41C],0.66
9,GUCAGGGCUCAACACAGCGUGGCAAAGUGGCUGGGGCCGGACUGGC [G2U A6G U34G U38C A39G C45G],0
10,GCCAGAACUCAACACAGCGUGGCCAAGUGGCUGUGGCUAGUCUGCC [G2C G7A A24C A41U],0.08
11,GCCAGAGCUCAACACAGCGUGGCAAAGUGGCUGCGGCUAGACUUCC [G2C U34C G44U],0.05
12,GCCAGAGCGCAACAGAGCGUGGUAAAGUGGCUGUGGCUAGGCUGCC [G2C U9G C15G C23U A41G],0.1
13,GUCGGAGCUCAACACACCGUGGCAAACUGGCUGUGGCUAGACGGCC [G2U A4G G17C G27C U43G],0.01
14,GUCCCAGCUCAACACAGCGUGGCAAAGUGGCUAUGGCUAGACUGGC [G2U A4C G5C G33A C45G],0.01
15,GCCAGAGCUCAACACAGCGAGGUAAAGUGGCUGUCGCGAGACUGCC [G2C U20A C23U G35C U38G],0.07
16,GUCGGAUCUCAACACAGCGUGGCAAAGUGGAUGUGGCUAGACUGCC [G2U A4G G7U C31A],0.12
17,GUCAGCGUUCAACACAGCGUGGCAAAGUGGAUGUGGCUAGACUGCC [G2U A6C C8U C31A],0.07
18,GCCAGAGCUCAACACAGCGUUGAAAAAUGGCUGUGGCUAGAUUGCC [G2C G21U C23A G27A C42U],0.1
19,GCCAGAGCUCAACACAGCGUGGCAAAGUGGCGAUGGAUAGAUUUCC [G2C U32G G33A C37A C42U G44U],0.05

row,Variant,self-cleavage
1,GCCAGAGCGCAACACAGCGUGGCUAAGUGGCUGUGGCUGGACUGGC [G2C U9G A24U A39G C45G],0.1
2,GUCGGAGCUCAACACAGCGUGGCAAAGUGGGUGUGGCUAGACUUCC [G2U A4G C31G G44U],0.04
3,GCCAGAGCUCAACACAGCGUGGCAAAGUGGCAGUCGCUAGACUGAC [G2C U32A G35C C45A],0.01
4,GCCAGACCUCAACACAGCGAGGAAAAGUGGCUGUGGCUAGACUGCC [G2C G7C U20A C23A],0.01
5,GUCAGAGCUCCACACAGCGUGGCUCAGUGGCUCUGGCUAGACUGCC [G2U A11C A24U A25C G33C],0
6,GCCAGAGCUCAACACAGCAGCGCAAAGUGGCUGUGGCUAGACUGCC [G2C G19A U20G G21C],0.08
7,GCCAGAUCUCAACACAGCGUGGCAAAGUGGCUGUGGCUAGAGUGCC [G2C G7U C42G],0
8,GUCAGGGCGCAACACAGCGUGGCAAAGUGGCUGUGGCUCGAUUGCC [G2U A6G U9G A39C C42U],0.02
9,GCCAGAGCUCAACACAGCGUUGCAGAGUGGCUAUGGCUAGACUGCC [G2C G21U A25G G33A],0.04
10,GUCAGUGCUCAACACAACUUGGCAAAGUUGCUGUGGCUACACUGCC [G2U A6U G17A G19U G29U G40C],0.03
11,GCCAGAAUUCAUCACAGCGUGGCAAAGUGGCUGUUGCUAGACUGCC [G2C G7A C8U A12U G35U],0.03
12,GUCAGGGCUCAACACAGCGUGGCACAGUGGCUGUUGCUAGACUGCC [G2U A6G A25C G35U],0.04
13,GUCGGAGCUCAACACAGAGUGGCCAAGUGUCUGUGGCUAGACUGCC [G2U A4G C18A A24C G30U],0.14
14,GCCAGAGCUCAACACAUCGUGGCAAAGUGGCUAUUGCUAGACUUUC [G2C G17U G33A G35U G44U C45U],0.29
15,GCCAGAGCUCAACACAGCUUAGCAAAGUGGCUGUGGCUAGACUGCC [G2C G19U G21A],1.22
16,GCCAGAGCUCAACACAGCGUGCCAAAGUGACUGUGGCUAGACUGCC [G2C G22C G30A],0.29
17,GUCAGUGAUCAACACAGCGUGGCAAAGUGGCUGUGGCUAGACUGCC [G2U A6U C8A],0.03
18,GCCAGAGCUCAACACAGCGUGGCAAAGUGGCUUUUGCUAGACUGCC [G2C G33U G35U],0
19,GCCAGAGCUCAACACAGCGAGGCAAUGUGGCUGUGGCUAGACUACC [G2C U20A A26U G44A],0.05

row,Variant,self-cleavage
1,GCCAUAGCUAAACACAGCGUUGCAAAGUGGCUGUGGCUAGACUGCC [G2C G5U C10A G21U],0.04
2,GUCCGAGCUCAACACUGCGUUGCAAAGUGGCUGUGGCUAGACUGCC [G2U A4C A16U G21U],0.06
3,GCCAGAGCUCAACACAGCGUGGCAAAGUGGCCGUGGCCAGACUGCC [G2C U32C U38C],0.04
4,GCCAGAGCUCAACACAACGUGUCAAAGUGGCUGUGGCUAGACUGCC [G2C G17A G22U],0.12
5,GCCAGAGCUCAACACAGCUUGGCAAAGUGGCUAUGGCUAGACUGCC [G2C G19U G33A],0.14
6,GUCAGUGCGUAACACGGCGUGGCAAAGUGGCUGUGGUUAAACUGCC [G2U A6U U9G C10U A16G C37U G40A],0.01
7,GUCAGGGCUCAACACAGCGUAGCAAAGUGGCUGUGACUAGACUGCC [G2U A6G G21A G36A],0.01
8,GCCAGAGCUCAACACAACGUGGCAAAGUGGCUGUGGCUAGACAGCC [G2C G17A U43A],0
9,GCCAUAGCUCAACACAGCGUGGCAAAGUGGCUGUUGCUAGACUGCC [G2C G5U G35U],0.04
10,GUCAGAGCUCCACAUAGCGUGGCAGAGUGGCUGUGGCCAGACUGCC [G2U A11C C15U A25G U38C],0
11,GUCAGGGCUCCACACAGCGUGGCAAAGUGGCUGUGGCUAGACUGUC [G2U A6G A11C C45U],0.01
12,GCCAGAGCUCAACACAGCGUUGCAAAGUGCCUGUGGCUAGACUACC [G2C G21U G30C G44A],0.73
13,GCCAGAGCUCAACACAGCAUGGCAAAGUGAUUGAGGCAAGACCGUC [G2C G19A G30A C31U U34A U38A U43C C45U],0.04
14,GCCAGAACUCAGCACAGCGUGGCAAAGUGGCAGUGGCUAGACUGCC [G2C G7A A12G U32A],0.25
15,GUCAGUGCUCAACACAGCGCGGCUAAGUGGCUGUGGCUAGACUGCC [G2U A6U U20C A24U],0.13
16,GUCUGACCUCAACACAGCGUGGGAAAGUGGCUGUGGCUAGACUGCC [G2U A4U G7C C23G],0.05
17,GUCCGAGCUCAACACAUCGUGGCAAAGUGGCUGUGGCUAGACUGCC [G2U A4C G17U],0.05
18,GUCAGCGCUCAUAACAGCGUUGCACAGUGGCUGUGGCUAGCCUGCC [G2U A6C A12U C13A G21U A25C A41C],0.03
